The campaign covered roughly 94,000 compounds. About 4,000 (4.3%) were called active. Inconclusive means that the source gave no clear call. Such entries were picked first, then a sample of the others. Calls come from the whole dose curve; as a rule, active = well fitted inhibition curve with a large enough effect; inconclusive = small, poorly fitted or top-dose-only effect; inactive = no such curve, though single readings can be large or run the other way. A potency beside an inconclusive call is a rough fit, not a confirmed value.
Test: Cytotoxic Profiling in NIH 3T3 Cell Line of Diverse Libraries Using Quantitative High-Throughput Screening; note: nearly all actives have a fitted effect of over 55% in size
Settings: NIH 3T3 viability, CellTiter-Glo ATP luminescence, 48-72 h; activity change, negative = cytotoxicity: at 96.7 µM (top of the series) unless noted; series mostly up to 96.7 µM
In short: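 Cytotoxicity is measured as loss of cellular ATP: NIH 3T3 cells (400/well) are exposed to compound for 48 or 72 hr at 37 °C, then CellTiter-Glo luminescence is imaged after 10 min at room temperature.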
% is set by controls: 0 for no effect and ±100 for the full control effect; potency is the fitted concentration of half-maximal effect; tags give direction and shape of the fitted curve.

Structure (SMILES) | activity change, negative = cytotoxicity | Potency | outcome
O=C(NC1CCC1)C1CCCN1C(=O)c1cccc(-c2cccnc2)c1 (stereo unspecified) | inactive: -5.71% |  | 
Cc1onc(-c2cnn(C)c2NCCc2ccccc2)c1C(=O)N1CCC(F)(F)CC1 |  | inconclusive: 35.5 µM [inhibitor, partial curve] | 
CN1CCCCCC(O)c2cc(C(=O)NCCc3c[nH]c4ccccc34)ccc21 (stereo unspecified) |  | inconclusive: 44.7 µM [inhibitor, partial curve, poor fit] | 
Cc1ccc(C)c(-c2cc3c(=O)n(CCNC(=O)c4cccc(F)c4)ccn3n2)c1 |  | inconclusive: 44.7 µM [inhibitor, partial curve, poor fit] | 
CCn1c(=O)c2ccnn2c2ccc(C(=O)NCc3ccc(OC)cc3OC)cc21 |  | inconclusive: 70.8 µM [inhibitor, single point] | 
CC1(C)[C@H](Cc2cc(CC3CCCCC3)on2)C[C@@H]1NC(=O)c1ccccc1 |  | active: 56.2 µM | 
COc1ccc(OC)c(-c2cnc3[nH]cc(CC(N)=O)c3c2)c1 |  | inconclusive: 56.2 µM [inhibitor, partial curve, poor fit] | 
COc1ccc(-c2noc([C@@H]3C[C@H](NS(=O)(=O)c4ccc5ccccc5c4)CN3C)n2)cc1 |  | inconclusive: 28.2 µM [inhibitor, full curve] | 
CC1(COc2ccccc2)COc2ccc(C(=O)NCCc3ccccc3)cc2N1 (stereo unspecified) |  | inconclusive: 39.8 µM [inhibitor, full curve] | 
COc1ccc(NC(=O)[C@@H]2C[C@@H](c3ccc(F)cc3)N(CCOc3ccccc3)C2)cn1 |  | active: 44.7 µM | 
O=C1CN(C(=O)OCc2ccccc2)CC(O)CN1Cc1ccc2c(c1)OCO2 (stereo unspecified) |  | inconclusive: 79.4 µM [inhibitor, single point] | 
Oc1ccccc1CN1CCOC[C@H]1c1ncc(-c2ccccc2)[nH]1 |  | active: 100 µM | 
Cc1ccc([S+](=O)([O-])NC2CCN(c3ccc4nnc(-c5ccccc5)n4n3)C2)cc1 (stereo unspecified) |  | inconclusive: 56.2 µM [inhibitor, partial curve, poor fit] | 
O=C(Nc1ccc([C@@H](O)[C@H]2COCC(=O)N2Cc2ccc(F)cc2)cc1)c1ccccc1 |  | inconclusive: 89.1 µM [inhibitor, partial curve] | 
COc1ccccc1CN1CC[C@@H]2OCC(=O)N(Cc3c[nH]c4ccccc34)[C@H]2CC1 |  | inconclusive: 89.1 µM [inhibitor, partial curve, poor fit] | 
COc1cc(CN2CCC3(CCN(CC4CC4)CC3)C(CO)C2)ccc1F (stereo unspecified) |  | inconclusive: 50.1 µM [inhibitor, partial curve, poor fit] | 
CC(C)N1CCOC[C@H]1c1ncc(-c2ccc(OC(F)(F)F)cc2)[nH]1 |  | inconclusive: 89.1 µM [inhibitor, partial curve] | 
Cc1ccc(-n2nc3n(c2=O)CCN([S+](=O)([O-])c2cccs2)C3)cc1 | inactive: -24.8% |  | 
CC(C)c1nc(-c2ccc(OC3CCN(C(=O)CCc4nc5ccccc5[nH]4)C3)cc2)no1 (stereo unspecified) |  | inconclusive: 50.1 µM [inhibitor, partial curve, poor fit] | 
Cn1cnc2cc(-c3ccc(F)cc3)cc(C(=O)NCc3cccnc3)c21 |  | inconclusive: 79.4 µM [inhibitor, partial curve] | 
O=C(c1ccccc1)N1CCCC(c2nn(-c3ccccn3)c(=O)[nH]2)C1 (stereo unspecified) | inactive: 2.62% |  | 
COc1ccc2nc([C@H]3CCN(Cc4ccccc4F)C3)[nH]c2c1 |  | inconclusive: 89.1 µM [inhibitor, partial curve] | 

Structure (SMILES) | activity change, negative = cytotoxicity | Potency | outcome
COCCNC(=O)c1cc(C(C)(C)C)nc2c1cnn2C | inactive: -26.5% [at 138 µM] |  | 
COc1cccc(Nc2ncc3c(n2)C(C)(C(=O)N2CC[S+](=O)([O-])CC2)CC3)c1 (stereo unspecified) |  | active: 100 µM | 
O=C(NCc1ccccn1)c1ccc2c(c1)n(Cc1cccc(F)c1)c(=O)c1ccnn12 |  | inconclusive: 50.1 µM [inhibitor, partial curve, poor fit] | 
N#CCNC(=O)[C@@H]1CCCN1c1ccnc2ccnn12 | inactive: 2.85% [at 138 µM] |  | 
COc1ccc(-c2[nH]nc3ncc(-c4ccc([S+](C)(=O)[O-])cc4)nc23)cc1F |  | inconclusive: 7.94 µM [inhibitor, full curve, poor fit] | 
CCC(c1cccs1)N1C(=O)[C@H]2CN(S(=O)(=O)c3ccc(C)c(C)c3)C[C@H]2C1=O (stereo partly specified) | inactive: -29.8% |  | 
COC[C@@H]1CN(c2ncccn2)C[C@H]1C(=O)Nc1ccc(OC)nc1 | inactive: -11.3% |  | 
Cc1nnc2ccc(N3CCCC(NC(=O)c4cccc(C(F)(F)F)c4)C3)nn12 (stereo unspecified) |  | inconclusive: 56.2 µM [inhibitor, partial curve, poor fit] | 
CNC(=O)[C@@H](c1ccc(OC)cc1)N1CCC[C@H]1C(=O)NCC1CCCCC1 |  | active: 100 µM | 
Cc1ccc(CN2CC[C@H](c3nc4cc(C)ccc4o3)C2)cc1 |  | inconclusive: 89.1 µM [inhibitor, partial curve, poor fit] | 
CCN1C(=O)Cc2cc(C(=O)NCc3c(C)cc(C)cc3C)ccc21 |  | inconclusive: 50.1 µM [inhibitor, partial curve, poor fit] | 
COCCN1CCCCCC(O)c2cc(C(=O)NCc3ccc(N4CCC(C)CC4)cc3)ccc21 (stereo unspecified) |  | active: 28.2 µM | 
N#CC1CCN(C(=O)C2CN(c3cccc(Cl)c3)C(=O)N2)CC1 (stereo unspecified) |  | inconclusive: 112 µM [inhibitor, single point] | 
Cc1ccc(NC(=O)C2CCN(C(=O)c3ncn4c3COC(c3ccc(F)cc3)C4)CC2)cc1Cl (stereo unspecified) |  | inconclusive: 70.8 µM [inhibitor, single point] | 
COCCN1C(=O)c2ccccc2C(C(=O)N2CCN(c3ccccc3)CC2)C12CCCC2 (stereo unspecified) | inactive: -4.54% |  | 
COC(=O)N1CCc2nc(C)nc(-c3ccc(OC)cc3)c2C1 | inactive: -26.6% [at 138 µM] |  | 
Cc1cnc(C2CCC2)n1CC1CCN(C(=O)CC2CCCC2)CC1 | inactive: -26.4% |  | 
COCC1(O)CCOC2(CCN(S(=O)(=O)c3ccc(OC)cc3)CC2)C1 (stereo unspecified) | inactive: -11% |  | 
O=C(CCc1ccccc1)NCCC1CCN(C(=O)Nc2cccc(F)c2)CC1 | inactive: -18.4% |  | 
N#Cc1ccc(CN2CCC3(CC2)CC(=O)c2ccc(Cl)cc2O3)cc1 | inactive: -26.3% |  | 
CCN(CC)C(=O)c1cc2c(s1)CCC(C(=O)N1CCN(c3ccccn3)CC1)C2 (stereo unspecified) |  | inconclusive: 50.1 µM [inhibitor, partial curve, poor fit] | 
COC(=O)c1ccc2c(c1)nc1n2[C@@H](CNC(=O)NC2CCCCC2)COC1 | inactive: -17% [at 138 µM] |  | 

Structure (SMILES) | activity change, negative = cytotoxicity | Potency | outcome
CC1(NC(=O)C2CC2)CN(Cc2nc(-c3ccccc3)cs2)C1 |  | inconclusive: 89.1 µM [inhibitor, partial curve, poor fit] | 
COc1cccc(OC)c1C(=O)N1CC(=O)N(CCOc2ccccc2)CC(O)C1 (stereo unspecified) |  | inconclusive: 79.4 µM [inhibitor, partial curve, poor fit] | 
CCCOCCCNC(=O)c1c(C)noc1-c1cc(OC)c(OC)c(OC)c1 | inactive: -17.4% |  | 
Cc1ccc(-c2noc([C@@H]3Cc4nc[nH]c4CN3C(=O)c3ccc(F)cc3)n2)cc1 |  | inconclusive: 79.4 µM [inhibitor, partial curve, poor fit] | 
CSCCNC(=O)C1CCCN(c2nccc(Nc3ccc(C)cc3)n2)C1 (stereo unspecified) |  | inconclusive: 44.7 µM [inhibitor, partial curve, poor fit] | 
CC(C)n1nc(OC(C)(C)C(=O)Nc2ccccn2)c2cc(CN3CCOCC3)ccc21 |  | inconclusive: 89.1 µM [inhibitor, partial curve, poor fit] | 
COc1cc2cc(CN3CCC[C@H]3CO)c(-c3cccc(Cl)c3)nc2cc1OC |  | inconclusive: 56.2 µM [inhibitor, partial curve, poor fit] | 
CCc1nc(-c2c3n(c(=O)n(CC(=O)Nc4ccc(C)cc4Cl)c2=O)CCCC3)no1 | inactive: -2.59% |  | 
Cc1cnc(CCN)n1Cc1ccccc1 |  | inconclusive: 56.2 µM [inhibitor, partial curve, poor fit] | 
O=C(Nc1ccccc1F)NC1CCN(Cc2cccc(-c3ccc(F)c(F)c3)c2)CC1 |  | active: 11.2 µM | 
CCOC(=O)N1CCN(c2nccc(-c3ccccn3)n2)CC1 |  | inconclusive: 50.1 µM [inhibitor, partial curve, poor fit] | 
Cc1nn2c(c1-c1ccccc1OCc1ccccc1)N(Cc1cccc(O)c1)CCC2 |  | active: 25.1 µM | 
CCN1C(=O)Cc2cc(C(=O)NCc3ccc(OC)cc3)ccc21 | inactive: -34.3% |  | 
O=C(c1nccc2ccccc12)N1CC(N(Cc2cccnc2)C(=O)Nc2ccccc2)C1 |  | inconclusive: 44.7 µM [inhibitor, partial curve, poor fit] | 
CCC(C)NC(=O)c1c(C)nc2cnccn12 (stereo unspecified) | inactive: -18% [at 174 µM] |  | 
Cc1noc(C)c1-c1cc2cc(CO)oc2c(NCc2cccc(F)c2)n1 |  | active: 25.1 µM | 
CN1CCC(NC(=O)c2n[nH]c3c2CN(C(=O)c2cc(F)cc(F)c2)CC3)CC1 |  |  | inactive
CN(Cc1cccc(C(F)(F)F)c1)C(=O)c1cccc(C(F)(F)F)c1 |  | inconclusive: 50.1 µM [inhibitor, partial curve, poor fit] | 
Cc1cccc([C@H]2C[C@@H](O)[C@@H](O)[C@@H]2NCC(C)(C)O)c1 | inactive: -5.41% [at 230 µM] |  | 
COc1cccc(Nc2ncc3c(n2)C(C)(C(=O)NC2CCN(C)CC2)CC3)c1 (stereo unspecified) |  | inconclusive: 79.4 µM [inhibitor, partial curve, poor fit] | 
COC(=O)[C@@H]1Cc2c([nH]c3ccccc23)[C@H]2C[C@@H](NCCNC(C)=O)C[C@@H](c3ccc(C(F)(F)F)cc3)N21 |  | active: 20 µM | 
COc1ccc2c(c1)CCc1c-2n[nH]c1C(=O)N1CCC(c2noc(COc3ccc(C)cc3)n2)CC1 |  | inconclusive: 28.2 µM [inhibitor, partial curve] | 
